# Results reported in PubChem BioAssay AID588453 (National Center for Advancing Translational Sciences (NCATS), 2011).
# About 4,000 (1%) of roughly 390,000 compounds were called active. Inconclusive results, whose numbers are uncertain, are shown with a selection of clear calls. Calls come from the whole dose curve; as a rule, active = well fitted inhibition curve with a large enough effect; inconclusive = small, poorly fitted or top-dose-only effect; inactive = no such curve, though single readings can be large or run the other way. A potency beside an inconclusive call is a rough fit, not a confirmed value.
# Target: Thioredoxin reductase 1, cytoplasmic (Rattus norvegicus) (UniProt O89049)
# Experiment: qHTS Assay for Inhibitors of Mammalian Selenoprotein Thioredoxin Reductase 1 (TrxR1): qHTS; note: nearly all actives have a fitted effect of over 65% in size
# Details: recombinant rTrxR1, NADPH fluorescence consumption, selenite substrate; series mostly up to 114 µM
# Text: The selenoprotein thioredoxin reductase (TrxR; EC 1.8.1.9) is a FAD containing homodimeric pyridine nucleotide-disulfide oxidoreductase with many cellular roles. Together with NADPH and its prime substrate thioredoxin (Trx), the enzyme forms the core of the Trx system. The mammalian Trx system exerts a wide spectrum of functions including redox regulation, antioxidant defense, regulation of transcription factors as well as support of cell growth and replication. Many of these functions involve the reduction of Trx, which may subsequently reduce a number of different substrates including ribonucleotide reductase, peroxiredoxins or NFkB. Mammalian TrxR itself also has a broad substrate specificity, reducing both protein and non-protein substrates, including low molecular weight compounds such as dehydroascorbate, lipoic acid, ubiquinone, and juglone. In addition, several drugs in clinical use for anticancer treatment are indeed known to target TrxR1.
# This BioAssay is a validation of an NADPH fluorescence-based, dual-purpose qHTS rTrxR1 assay designed to find potential inhibitors and substrates of rTrxR1. For this particular BioAssay, actives are potential inhibitors. See related BioAssay for substrate data deposition.
# NIH Molecular Libraries Probe Production Network [MLPCN]
# NIH Chemical Genomics Center [NCGC]
# Assay Provider: Elias Arner, Karolinska Institute
# Assay protocol: 2 uL of reagents (buffer in column 4 as negative control and 90 nM rTrxR1 in columns 1-3 and 5-48) were dispensed into Greiner black solid-bottom 1,536-well assay plates, followed by 1 uL of NADPH (400 uM final concentration) to each well. The plates were centrifuged at 1000 rpm for 15 seconds and subsequently incubated for 5 min at room temperature (~22 deg C) to allow for rTrxR1 reduction. Compounds (23 nL) were then transferred via Kalypsys pin tool equipped with 1536-pin array (10 nL slotted pins, V&P Scientific, San Diego, CA). In addition, a duplicate 2-fold serial dilution of the control compounds auranofin, a known gold-based TrxR1 inhibitor, and juglone (5-hydroxy-1,4-naphthoquinone), a natural TrxR1 substrate, were pin-transferred to columns 2 and 3, respectively. After incubation for 15 min at room temperature (~22 deg C), 1 uL of selenite (400 uM final concentration) were dispensed to each well. The plate was immediately transferred to a ViewLux high-throughput CCD imager (PerkinElmer), wherein kinetic measurements of NADPH fluorescence (Ex 340 nm, Em 450 nm) were acquired (8 minute kinetic read, see Table 1). Read 1 was utilized to assess the capacity of a compound to serve as an rTrxR1 substrate, i.e. a decrease in NADPH fluorescence compared to the no-compound background is an indication of a substrate behavior for that particular compound. For inhibitory activity of a compound, delta values, computed as the difference in fluorescence intensity between the first and last reads of an 8-minute time kinetic window, were used. All reagents were diluted in an assay buffer consisting of 50 mM Tris-HCl, pH 7.5, 2 mM EDTA, and 0.01% Tween-20.
# Throughout the screen, reagent bottle and all liquid lines were made light-tight to minimize reagent degradation. All screening operations were performed on a fully integrated robotic system (Kalypsys, San Diego, CA) containing one RX-130 and two RX-90 anthropomorphic robotic arms (Staubli, Duncan, SC). Library plates were screened starting from the lowest and proceeding to the highest concentration, and a 'double-pinning' step of the highest concentration was required to access higher concentrations of compounds. Vehicle-only plates, with DMSO being pin-transferred to the columns 5-48, were inserted uniformly at the beginning and the end of each library in order to monitor and record any shifts in the background, which can be affected by reagent dispensers or loss in enzyme activity over time. […]
# Potency is the fitted concentration of half-maximal effect; tags give direction and shape of the fitted curve.
# Sequence of UniProt O89049 (O89049 whole entry, looked up): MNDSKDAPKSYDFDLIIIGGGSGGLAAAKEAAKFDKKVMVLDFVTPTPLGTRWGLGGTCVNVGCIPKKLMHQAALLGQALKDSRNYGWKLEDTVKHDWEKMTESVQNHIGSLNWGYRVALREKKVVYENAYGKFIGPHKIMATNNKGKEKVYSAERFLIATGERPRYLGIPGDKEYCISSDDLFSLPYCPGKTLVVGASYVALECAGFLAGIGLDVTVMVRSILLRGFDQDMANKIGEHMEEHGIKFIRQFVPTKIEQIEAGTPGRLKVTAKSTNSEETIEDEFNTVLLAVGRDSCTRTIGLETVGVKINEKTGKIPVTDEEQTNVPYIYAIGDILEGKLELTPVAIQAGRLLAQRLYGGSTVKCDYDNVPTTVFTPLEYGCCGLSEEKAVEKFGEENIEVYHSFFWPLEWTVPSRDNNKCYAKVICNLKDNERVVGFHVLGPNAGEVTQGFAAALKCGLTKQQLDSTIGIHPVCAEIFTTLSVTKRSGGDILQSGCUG
row,SMILES,Potency
1,COc1ccc(NC(=O)CN(c2ccc([N+](=O)[O-])cc2)S(=O)(=O)c2ccccc2)cc1,inactive
2,Cc1ccc(-c2csc(NC3OC(=O)c4ccccc43)n2)cc1 (stereo unspecified),"inconclusive: 20 µM [inhibitor, full curve]"
3,Cc1c([N+](=O)[O-])cnc2ccccc12,inactive
4,CC(C)(C)c1ccc(C(=O)N2CC(=O)Nc3ccc(F)cc3C2c2ccc(F)cc2)cc1 (stereo unspecified),inactive
5,CCS(=O)(=O)N1CCCC(C(=O)NC2CCCC2)C1 (stereo unspecified),"inconclusive: 20 µM [inhibitor, single point]"
6,NC(=O)c1oc2ccc(Cl)cc2c1NC(=O)CN1CCOCC1,"inconclusive: 44.7 µM [inhibitor, partial curve]"
7,O=C1NC(c2cccc([N+](=O)[O-])c2)=CCN1c1ccccc1O,"inconclusive: 16.8 µM [inhibitor, partial curve]"
8,Cc1ccc(C(=O)CCNc2ccccc2)o1,"inconclusive: 3.55 µM [inhibitor, full curve, poor fit]"
9,O=C(CSc1nc2c(c(=O)n1-c1ccc(F)cc1)SCC2)NCc1ccco1,"inconclusive: 20 µM [inhibitor, full curve]"
10,Cn1c(C(=O)NCCC2=CCCCC2)cc2c(=O)n3ccccc3nc21,inactive
11,Cc1ccc(-c2nc3ncccn3c2Nc2ccccc2C)o1,"inconclusive: 56.2 µM [inhibitor, single point]"
12,CC(C)(C)c1ccc(Oc2ccc(NC(=O)c3cccs3)cn2)cc1,inactive
13,Cc1ccc(Oc2ccc(NC(=O)C3=CC=CN4CCS(=O)(=O)N=C34)cc2)cc1,inactive
14,CCN1CCN(CCCNC(=O)c2cc3c(s2)-c2c(C)cccc2OC3)CC1,"inconclusive: 44.7 µM [inhibitor, partial curve]"
15,COc1ccc(/C=C2\Oc3cc(OCC(=O)N4CC(O)C[C@H]4C(=O)O)ccc3C2=O)cc1OC (stereo partly specified),"inconclusive: 79.4 µM [inhibitor, partial curve, poor fit]"
16,COc1ccc(CN2CCNC(=O)C2CC(=O)N2CCCN(C(C)=O)CC2)cc1OC (stereo unspecified),"inconclusive: 79.4 µM [inhibitor, partial curve, poor fit]"
17,O=C(Nc1nccs1)c1cc2c(s1)CCCCC2,inactive
18,O=C(COC(=O)CCc1c[nH]c(=O)[nH]1)Nc1ccccc1,"inconclusive: 56.2 µM [inhibitor, single point]"
19,CCCCn1c(=O)[nH]c(=O)c2c1nc(-c1ccc(-c3ccccc3Br)o1)n2CC,"inconclusive: 12.6 µM [inhibitor, full curve]"
20,O=C(CSc1n[nH]c(=O)n1Cc1ccco1)Nc1ccccc1,inactive
21,NC(=O)/C(=C/c1ccco1)NC(=O)/C=C/c1ccccc1,"inconclusive: 56.2 µM [inhibitor, partial curve]"
22,CCCCc1cc(=O)oc2c(CN(C)C)c(O)c(Cl)cc12,"inconclusive: 63.1 µM [inhibitor, single point]"

row,SMILES,Potency
1,Oc1c(Cl)cc(CN2CCOCC2)c2cccnc12,"inconclusive: 12.6 µM [inhibitor, full curve]"
2,CC(C)(C)c1cc(C(=O)CCN2CCOCC2)cc(C(C)(C)C)c1O,"inconclusive: 31.6 µM [inhibitor, single point]"
3,CNCCCOc1cc2nc(N3CCCN(C)CC3)nc(NC3CCN(C)CC3)c2cc1OC,"inconclusive: 11.2 µM [inhibitor, full curve]"
4,Cc1ccc(S(=O)(=O)NCCN2CCN(S(=O)(=O)c3ccccc3Cl)CC2)cc1,"inconclusive: 89.1 µM [inhibitor, single point]"
5,O=C(N/N=C/c1cnc(N2CCCCC2)s1)c1ccc(Cl)cc1,inactive
6,Cc1ccc(CN(C(=O)COc2ccc(C(C)(C)C)cc2)C2CCS(=O)(=O)C2)o1 (stereo unspecified),"inconclusive: 50.1 µM [inhibitor, partial curve]"
7,Cc1cc(C(=O)N/N=C/c2ccccn2)n[nH]1,inactive
8,Cc1cn(-c2cccnc2)c(C)c1CNC[C@H]1O[C@@H](n2cnc3c(N)ncnc32)[C@H](O)[C@@H]1O,"inconclusive: 50.1 µM [inhibitor, partial curve]"
9,O=C1C(Cl)=C(N2CCOCC2)C(=O)N1c1cccc(Cl)c1,"inconclusive: 79.4 µM [inhibitor, single point]"
10,O=C(CCNS(=O)(=O)c1cccc2nsnc12)NCCC1=CCCCC1,"inconclusive: 39.8 µM [inhibitor, single point]"
11,COc1ccc(OCC(=O)Sc2ccc(C)cc2)cc1,"inconclusive: 12.6 µM [inhibitor, partial curve, poor fit]"
12,Cc1ccc(/C=N/N(Cc2ccccc2)c2ccccc2)o1,"inconclusive: 7.94 µM [inhibitor, full curve, poor fit]"
13,O=C(Cc1sc(Nc2ccccc2)nc1-c1ccccc1)NCc1ccccn1,inactive
14,O=S(=O)(Nc1cccc(-c2ccc(N3CCCCCC3)nn2)c1)c1ccccc1Cl,inactive
15,CCOC(=O)c1cc2c(=O)n3ccccc3nc2n(CC2CCCO2)c1=NC(=O)c1ccc(OC)cc1OC (stereo unspecified),"inconclusive: 89.1 µM [inhibitor, single point]"
16,CCOC(=O)N1CCC(NC(=O)CC2C(=O)NCCN2Cc2ccc(C)cc2)CC1 (stereo unspecified),"inconclusive: 70.8 µM [inhibitor, partial curve]"
17,O=C(NNc1ccc(C(F)(F)F)cc1[N+](=O)[O-])c1ccc(NS(=O)(=O)c2ccc(F)cc2)cc1,"inconclusive: 79.4 µM [inhibitor, single point]"
18,Cc1ccc(NC(=O)CC2SC(=O)N(c3ccccc3)C2=O)cc1 (stereo unspecified),"inconclusive: 35.5 µM [inhibitor, single point]"
19,Cc1cccc(NC(=O)c2sc3nc4c(c(-c5cccs5)c3c2N)CN(C)CC4)c1,"inconclusive: 14.1 µM [inhibitor, partial curve]"
20,COc1ccccc1C(=O)n1nc(-c2ccco2)nc1SC,"inconclusive: 15.8 µM [inhibitor, full curve]"
21,Cc1cc(C)cc(N(CC(=O)N2CCN(Cc3ccccc3)CC2)S(=O)(=O)c2c(C)noc2C)c1,"inconclusive: 50.1 µM [inhibitor, partial curve]"
22,O=C1NC(c2cccs2)Nc2sc3c(c21)CCCC3 (stereo unspecified),"inconclusive: 11.2 µM [inhibitor, partial curve]"

row,SMILES,Potency
1,CCCCCCCC(=O)NC(Nc1ccc(S(N)(=O)=O)cc1)C(Cl)(Cl)Cl (stereo unspecified),"inconclusive: 25.1 µM [inhibitor, single point]"
2,CN1CC2=Cc3ccccc3OC23Oc2ccccc2C=C3C1,"inconclusive: 12.6 µM [inhibitor, partial curve, poor fit]"
3,O=[N+]([O-])c1cc(F)c2cccnc2c1O,active: 44.7 µM
4,COc1ccc(N2CCN(C(c3cccs3)C(C)NC(=O)c3ccc4c(c3)OCO4)CC2)cc1 (stereo unspecified),inactive
5,CC(C)(C)C(=O)NC(=S)Nc1ccccc1F,"inconclusive: 20 µM [inhibitor, partial curve]"
6,CCOC(=O)c1ccc(CNC(=O)C2CCCCC2C(=O)OCC(F)(F)F)o1 (stereo unspecified),"inconclusive: 25.1 µM [inhibitor, single point]"
7,COc1cc(CC(=O)Nc2cc(S(=O)(=O)N3CCOCC3)ccc2N2CCCC2)cc(OC)c1OC,"inconclusive: 39.8 µM [inhibitor, partial curve, poor fit]"
8,COc1ccc(-c2csc(NC3OC(=O)c4ccccc43)n2)cc1 (stereo unspecified),"inconclusive: 4.47 µM [inhibitor, full curve]"
9,O=C(CN1CCN(C(=O)c2ccco2)CC1)Nc1ccc2c(c1)OCCO2,"inconclusive: 50.1 µM [inhibitor, single point]"
10,COc1ccccc1NC(=S)NC(=O)CCCOc1ccc(Cl)cc1Cl,"inconclusive: 28.2 µM [inhibitor, partial curve]"
11,O=C(/C=C/c1ccco1)NC(=S)Nc1ccccn1,"inconclusive: 17.8 µM [inhibitor, single point]"
12,O=C1CCCC(=O)C1C(c1ccc(Cl)cc1)C1C(=O)CCCC1=O,"inconclusive: 44.7 µM [inhibitor, partial curve, poor fit]"
13,C/C=C\C=C\C(=O)N1CC2(CC(c3cccc(NC(=O)CC)c3)=NO2)C[C@H]1C(N)=O (stereo partly specified),"inconclusive: 22.4 µM [inhibitor, single point]"
14,COc1ccccc1NC(=O)C1=C(C)NC2=C(C(=O)CCC2)C1c1ccc(C)o1 (stereo unspecified),"inconclusive: 22.4 µM [inhibitor, partial curve, poor fit]"
15,N#C/C(=C\c1ccco1)C(=O)NCC1CCCO1 (stereo unspecified),"inconclusive: 79.4 µM [inhibitor, single point]"
16,CS(=O)(=O)c1ccc(-c2cccc(NC(=O)c3ccco3)c2)nn1,"inconclusive: 89.1 µM [inhibitor, single point]"
17,CCOC(=O)C1CCCN(c2cc(=O)n(-c3ccccc3Cl)c(=O)[nH]2)C1 (stereo unspecified),"inconclusive: 20 µM [inhibitor, single point]"
18,Cc1cc(C)c2c(/C=C/c3ccc(N(C)C)cc3)ccnc2c1,inactive
19,O=C(CN1CCN(CCN2C(=O)c3cccc4cccc(c34)C2=O)CC1)c1ccc(F)cc1,"inconclusive: 8.91 µM [inhibitor, full curve]"
20,COC(=O)Cc1c(C)c2ccc3c(c2oc1=O)CN(Cc1ccc(Cl)cc1)CO3,"inconclusive: 100 µM [inhibitor, single point]"
21,O=[N+]([O-])c1ccc(O)c(NC(=S)Nc2ccccc2)c1,"inconclusive: 79.4 µM [inhibitor, single point]"
22,CCOc1ccc(-n2cc(-c3ccccc3)c3c(NCc4ccccc4)ncnc32)cc1,inactive
